The values that follow come from publication PMC7819943, “Rice protein-binding microarrays: a tool to detect cis-acting elements near promoter regions in rice”.

The other results are listed elsewhere or left out.

For this experiment, the target named is T1, OsWOX13 (Oryza sativa, UniProt Q5QMM3 1-267).
T1 sequence: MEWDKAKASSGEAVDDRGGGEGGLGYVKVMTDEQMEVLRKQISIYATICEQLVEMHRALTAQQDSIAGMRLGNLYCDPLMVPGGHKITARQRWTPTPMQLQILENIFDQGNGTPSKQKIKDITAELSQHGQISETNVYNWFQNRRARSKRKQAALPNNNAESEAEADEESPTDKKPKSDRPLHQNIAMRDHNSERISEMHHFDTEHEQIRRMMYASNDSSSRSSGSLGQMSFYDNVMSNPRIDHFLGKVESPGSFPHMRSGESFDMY
In words: protein-binding microarray (RPBM); PBS, 2% BSA, 51.3 ng/ul salmon testes DNA, 50 uM zinc acetate, 200 nM TF, 25 C, 1 h; high values mean tight binding. The note with it: protein: recombinant; tags: N-terminal polyhistidine and DsRed monomer fusion (pET32a); label: CyDye5-dUTP incorporated in the synthesized complementary strand; 3' TTTTT single-stranded linker to array surface; dsDNA, one strand shown. Put shortly:
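Transcription factors were each fused at the N-terminus to a polyhistidine tag plus DsRed and expressed in E. coli BL21-CodonPlus before Ni–NTA purification. Binding to a double-stranded custom Agilent array was carried out with 200 nM protein at 25 °C for 1 h in PBS, 2% BSA, salmon testes DNA and 50 µM zinc acetate. The binding signal is per-feature fluorescence intensity, in arbitrary units, on an Axon 4000B scanner.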
In the case of “AAAAGCAATTGATTACCTACATGGAAGAGGACATAGGAGGCGGAGTCACCTAGTGCAG”, the binding signal is 30700 fluorescence intensity (a.u.).

Take “ACTAACAGAAATATTTGACAGATGGCGAAAGGACCTGTAACGGAGTCACCTAGTGCAG”: the binding signal was 17000 fluorescence intensity (a.u.).

For the sequence “CAACGCCTGTAATTGCTCCTCCTGGCATGCAAGCCTTGTCCGGAGTCACCTAGTGCAG”, the binding signal was 5050 fluorescence intensity (a.u.).

As for “GGACTGAGTTAATTTGAATCCAGCTTTTCCCACCATTTTCCGGAGTCACCTAGTGCAG”, the binding signal was 3750 fluorescence intensity (a.u.).

For “CTTGTGGATGATTTGGGATATTTAGGGAGCAAATCGATTGCGGAGTCACCTAGTGCAG”, the binding signal is 3270 fluorescence intensity (a.u.).

Turning to “CGAAATTGCTCTTTCTAAGGGATATGCTTCCCTCTCACAACGGAGTCACCTAGTGCAG”, the binding signal was 6540 fluorescence intensity (a.u.).

As for “GTTTAAATTAAAACTTGAAAATATAAATCATGAATAAGTTCGGAGTCACCTAGTGCAG”, the binding signal is 3300 fluorescence intensity (a.u.).

For the sequence “AATATAAAGAATTACTTCAATCATGCAAGAAGAGGCAATTCGGAGTCACCTAGTGCAG”, the binding signal is 4560 fluorescence intensity (a.u.).

Turning to “TTTGATAAAATCATAGATGTAGATTTTAATGTGATCTGAGCGGAGTCACCTAGTGCAG”, the binding signal was 6270 fluorescence intensity (a.u.).

For “CTTAATTAATCACGTACTAATGTATCGCTCCGTTTTCCGTCGGAGTCACCTAGTGCAG”, the binding signal is 40400 fluorescence intensity (a.u.).

As for “TTTCACTCATCAATTAAATTAGGCGGTTGATACTGAGTACCGGAGTCACCTAGTGCAG”, the binding signal was 17600 fluorescence intensity (a.u.).

On to “GCTAACCATAATGATGACAATTGCCTGACAGAGAAAGACACGGAGTCACCTAGTGCAG”, for which the binding signal was 6440 fluorescence intensity (a.u.).

For the sequence “ATGATTAACTATTACTGTACCAAGTTGGGCCAGGCTTGCACGGAGTCACCTAGTGCAG”, the binding signal was 38000 fluorescence intensity (a.u.).

Turning to “TGCAAATGATGACAGTCACACGCATTAACGCCTTGGACGGCGGAGTCACCTAGTGCAG”, the binding signal is 12000 fluorescence intensity (a.u.).

Turning to “GCTCAATCCAATTTAACGTGCTACAAAGCTACTTCCTCCGCGGAGTCACCTAGTGCAG”, the binding signal was 3240 fluorescence intensity (a.u.).

For “GCTCCAATTAATCAACTTCCATCGTATCCATTGATCGATGCGGAGTCACCTAGTGCAG”, the binding signal was 26500 fluorescence intensity (a.u.).

For the sequence “CTGCGGTGATTTCTAAACCATAGTAACCACAACTAAACAACGGAGTCACCTAGTGCAG”, the binding signal was 3200 fluorescence intensity (a.u.).

Regarding “ATTAATTAACCCGTAAGCTATGCTGCGGCTGCACGGGCACCGGAGTCACCTAGTGCAG”, the binding signal was 15600 fluorescence intensity (a.u.).

Take “CCACAATCAATTTAGATGGCTCATGAGATGCACTTAATATCGGAGTCACCTAGTGCAG”: the binding signal is 15500 fluorescence intensity (a.u.).

“TGATAGATGGAAAATAAATTGGTAAAATTAGTAGATGGGACGGAGTCACCTAGTGCAG”: the binding signal was 39700 fluorescence intensity (a.u.).

Consider “CCAGTGATAGAGCCATCAGTCTATCTGGTGATCTAATCTACGGAGTCACCTAGTGCAG”, for which the binding signal is 4390 fluorescence intensity (a.u.).

For “CAATTCCTTAATCTAAACTCCTAATTATCTTTTGCCTACACGGAGTCACCTAGTGCAG”, the binding signal was 3860 fluorescence intensity (a.u.).

Turning to “ATTCATTAACATATTGATGGCTTCATGCGGGTGGCCTTGGCGGAGTCACCTAGTGCAG”, the binding signal is 4550 fluorescence intensity (a.u.).

As to “CCATATTCATTGGTAATCAGGAGATGGGTCAACATGGCATCGGAGTCACCTAGTGCAG”, the binding signal is 3310 fluorescence intensity (a.u.).

For “GATTTTGATAGGAATGTAAGTATAAAACAGAGGATTGTAACGGAGTCACCTAGTGCAG”, the binding signal was 3360 fluorescence intensity (a.u.).

Turning to “ATTATTGAAAGTTATGTGACATTTATATAGTAAAAGATATCGGAGTCACCTAGTGCAG”, the binding signal was 3270 fluorescence intensity (a.u.).

In the case of “TAACATTCCTTCAATTAACTAACTCAAACAGATGAACAAACGGAGTCACCTAGTGCAG”, the binding signal was 11400 fluorescence intensity (a.u.).

“TAGCTCATTCAAATTGACATTTGCACGATGATGAGTGTGCCGGAGTCACCTAGTGCAG”: the binding signal was 11800 fluorescence intensity (a.u.).

For “GGGGTGATTAGTCCTTATATTTATACACCGTATGTAGGGACGGAGTCACCTAGTGCAG”, the binding signal was 31400 fluorescence intensity (a.u.).

Consider “TTTTGATAATTGGAGGAGTCGATATACCCGGTTTTGTGGTCGGAGTCACCTAGTGCAG”, for which the binding signal is 34900 fluorescence intensity (a.u.).

On to “AGTTTAGTTAATTTTCAGTCCATTAGAGTCTTGTTTTAGTCGGAGTCACCTAGTGCAG”, for which the binding signal was 4940 fluorescence intensity (a.u.).

As to “TCAACTGGTTAATCACAGCAATTAACCAAGCTGGACATCACGGAGTCACCTAGTGCAG”, the binding signal was 16900 fluorescence intensity (a.u.).

Regarding “AAAATCAAATTGTTGCTAATCTACCATTAATTCCCTAGTACGGAGTCACCTAGTGCAG”, the binding signal was 7710 fluorescence intensity (a.u.).

For the sequence “TCTAATTAAGATGAGATTCTATCTCAATTTGTGTTAGCACCGGAGTCACCTAGTGCAG”, the binding signal is 23300 fluorescence intensity (a.u.).

“TTAAATTTATAGTTTTGTGATATATCCCTAGTTTTGTTAACGGAGTCACCTAGTGCAG”: the binding signal is 8610 fluorescence intensity (a.u.).

On to “GGCGAACAAATTAAAATGCCTTTCGATTTCCCGTCTGGTTCGGAGTCACCTAGTGCAG”, for which the binding signal was 3440 fluorescence intensity (a.u.).

Regarding “ATATAAAATTAACGTGGATAATCACATTTTCCTACACATTCGGAGTCACCTAGTGCAG”, the binding signal was 12100 fluorescence intensity (a.u.).

On to “AGCAACAAAATTAACAACGGGTAACTCGTAAGTACGATCGCGGAGTCACCTAGTGCAG”, for which the binding signal was 5400 fluorescence intensity (a.u.).

For “TTCATGGTAATCAGATTAATTTGGGCGTTAGATTTAAGAACGGAGTCACCTAGTGCAG”, the binding signal is 6120 fluorescence intensity (a.u.).

In the case of “AGCTTTAAATTTAAAGTTGAAAATTTAAATTTTAGCTAATCGGAGTCACCTAGTGCAG”, the binding signal was 8170 fluorescence intensity (a.u.).

In the case of “CCAAAATTAAAATCTTGGAACATAATCTTTAGAGTTGATTCGGAGTCACCTAGTGCAG”, the binding signal is 4130 fluorescence intensity (a.u.).

On to “TAGCTAATACTTAATTAATCATACACAAATGAGTTGTTCCCGGAGTCACCTAGTGCAG”, for which the binding signal was 8720 fluorescence intensity (a.u.).
